Screen size: about 110,000 compounds; about 230 (0.21%) showed an effect of 50% or more. Some of the results follow.
The molecules below were run against DPAP1 (Plasmodium falciparum, UniProt Q8IIJ9) (assay: primary screen, percent inhibition; read by cleavage of a fluorogenic dipeptide substrate; higher = more effect of the substance).
Set-up: species or system P. falciparum D10 trophozoite lysates; single well
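Note: 30 min substrate incubation versus DMSO and 10 µM JCP410 controls.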

Sequence of DPAP1 (Q8IIJ9 whole entry, looked up): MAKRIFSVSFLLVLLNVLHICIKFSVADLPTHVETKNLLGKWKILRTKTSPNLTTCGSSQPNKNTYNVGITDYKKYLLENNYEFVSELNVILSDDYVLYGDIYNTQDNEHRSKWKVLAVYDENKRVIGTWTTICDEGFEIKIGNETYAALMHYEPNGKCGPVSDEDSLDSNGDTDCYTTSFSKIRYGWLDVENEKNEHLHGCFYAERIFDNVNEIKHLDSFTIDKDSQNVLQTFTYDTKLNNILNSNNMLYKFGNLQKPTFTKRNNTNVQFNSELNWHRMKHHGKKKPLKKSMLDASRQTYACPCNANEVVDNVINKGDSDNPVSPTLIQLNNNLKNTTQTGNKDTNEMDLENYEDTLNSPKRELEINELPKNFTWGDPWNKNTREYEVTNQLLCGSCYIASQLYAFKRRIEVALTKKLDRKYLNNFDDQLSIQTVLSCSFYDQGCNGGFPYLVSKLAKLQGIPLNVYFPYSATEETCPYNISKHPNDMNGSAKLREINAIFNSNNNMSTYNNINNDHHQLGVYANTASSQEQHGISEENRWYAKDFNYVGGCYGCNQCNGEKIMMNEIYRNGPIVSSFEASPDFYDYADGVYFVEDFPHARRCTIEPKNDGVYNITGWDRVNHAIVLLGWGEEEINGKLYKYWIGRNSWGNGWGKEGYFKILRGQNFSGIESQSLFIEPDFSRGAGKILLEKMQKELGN

SMILES	% Inhibition @ 10 uM
CC(C)(C)C(=O)NCCc1nc2ccccc2n1CCOc1ccc(Cl)cc1	1.12%
CCCCCSc1nc2n(n1)C(c1cccs1)/C(=C(\O)OCC)C(C)=N2 (stereo not shown)	0.351%
Cc1ccccc1CN1CCN(Cc2ccccc2)CC1	-1.77%
Oc1nc(-c2cccc(Cl)c2)nc2ccccc12	-8.92%
CCC(=O)CC(Sc1cc(=O)oc2ccccc12)c1ccc([N+](=O)[O-])cc1 (stereo not shown)	-4.35%
O=S(=O)(Cc1ccccc1)N1CCC(c2nnnn2-c2ccc(F)cc2)CC1	5.43%
Cc1nn(-c2ccc(F)cc2)c(O)c1/C=N/c1ccc(S(=O)(=O)N(C)C)cc1	0.851%
COCCN1C(=O)c2[nH]nc(-c3ccccc3O)c2C1c1ccc(OCc2ccccc2)cc1 (stereo not shown)	0.366%
N#Cc1ccc(NC(=O)c2ccccc2)cc1	-2.18%
Cc1cccc(NC(=O)C2C3CCC(O3)C2C(=O)O)c1 (stereo not shown)	2.01%
Nc1nonc1C(=O)NCCNCc1ccc(-c2ccccc2)o1	-1.71%
Cc1cc(NC(=O)CN2C(=O)S/C(=C\c3ccccc3)C2=O)no1	4.54%
Cc1cc(O)nc(Nc2ccccc2)n1	1.91%
Cc1ccc(S(=O)(=O)N(C)CC(=O)Nc2ccccc2Sc2ccccc2)cc1	0.907%
N#CCNC(=O)C1(NC(=O)c2ccc(-c3ccc(S(=O)(=O)N4CCN(CC(F)(F)F)CC4)cc3)cc2)CCCCC1	3.19%
CCN(CC)CCNc1nc(C)cc(C)n1	-1.69%
CCCN(CCC)C(=O)c1cc(-c2ccc(Cl)cc2)[nH]n1	-5.24%
O=[N+]([O-])c1ccc(CN2c3ccccc3C3=C(CCCC3)C23CCCCC3)cc1	4.12%
CCc1n[nH]c(N)n1	-5.29%
CC1(C)CC(=O)C2=C(C1)c1c(ccc3ccccc13)NC2c1cn(Cc2ccc(Cl)cc2Cl)c2ccccc12 (stereo not shown)	-6.08%
Cc1oc(-c2ccccc2)nc1CS(=O)CC(=O)NC1CCCCCC1 (stereo not shown)	-5.58%
CN1CCN(C(=O)c2cc3c(Cl)nc4ccccc4c3s2)CC1	-3.99%

SMILES	% Inhibition @ 10 uM
CCOc1ccc(C(=O)N2CCCc3ccccc32)cc1	-5.92%
CN1CCN(C(=O)CN(c2cc(Cl)ccc2Cl)S(C)(=O)=O)CC1	2.63%
C/C=C/COC(=O)Cn1c(=O)sc2cccc(Cl)c21	-2.58%
O=C(Nc1cc(Cl)ccc1O)c1cccc(N2C(=O)c3ccccc3C2=O)c1	-1.22%
O=C(Cn1ncc2ccccc21)Nc1cc(-c2cccc(F)c2)no1	1.68%
CCc1nc2ccccc2n1CC(O)COc1ccc(C(=O)OC)cc1 (stereo not shown)	-2.07%
O=C(O)CCCCN1C(=O)c2ccccc2C1=O	-2.62%
CC1=C(C(=O)NCc2ccccc2)C(c2ccc(C(F)(F)F)cc2)n2ncnc2N1 (stereo not shown)	5.93%
Cc1cc(C)c(NS(=O)(=O)c2ccc(NC(=O)C(F)(F)F)cc2)c(C)c1	7.16%
COc1ccc(C2SCC(=O)N2C)cc1 (stereo not shown)	3.53%
CCOc1ccc(CCNC(=O)Cn2ncc3c2-c2cc(C)ccc2OC3)cc1OCC	2.38%
COc1ccc(C2C3=C(O)CCCC3=NC(C)=C2C(=O)Nc2ccccc2C)cc1 (stereo not shown)	-0.864%
CCn1c2ccccc2n2cc(C)nc12	-5.23%
Cc1cccn2c(=O)c(/C=C(\C#N)C(=O)NC3CCCC3)c(Oc3ccccc3Cl)nc12	2%
COc1ccc(NS(=O)(=O)Cc2ccccc2)c(OC)c1	-2.35%
Cc1ccc(NC(=O)CN(CCc2ccccc2)S(C)(=O)=O)cc1C	7.42%
CCc1c(C)nc(SCc2ccccc2)c(C#N)c1C	-2.15%
COc1ccc(C(=O)c2coc3c2cc(O)c2ccccc23)cc1	-3.16%
O=C(Nc1ccc(NC(=O)c2cccs2)cc1)c1cccs1	1.57%
COc1ccc(NC(=O)C2(N(Cc3ccco3)C(=O)Cc3n[nH]c(N)n3)CCCCC2)cc1	-2.74%
O=C(O)Cc1ccc(NC(=O)c2cccnc2C(=O)O)cc1	9.82%
CCOC(=S)/N=C(\NS(=O)(=O)c1ccc(Br)cc1)c1ccccc1	2.92%

SMILES	% Inhibition @ 10 uM
COc1cccc(-c2coc3c2c(C)cc2oc(=O)c(CC(=O)O)c(C)c23)c1	17.3%
Cc1ccc(-c2csc(/C(C#N)=C/c3ccc(Br)cc3)n2)c(C)c1	-2%
C=CCNC(=O)c1cc2c(=O)n3cc(C)ccc3nc2n(C2CCCC2)c1=N	5.17%
CCN(CC)CCNC(=O)CC12CC3CC(CC(C3)C1)C2	1.87%
Cc1ccccc1OCC(=O)Nc1cccc(NC(=O)COc2ccccc2C)c1	-4.49%
CCOC(=O)c1nnc(Cc2ccc(OC)c(OC)c2)o1	6.13%
COc1ccc(-c2cc(C(F)F)n3ncc(C(=O)Nc4ccc(F)c(F)c4)c3n2)cc1	-3.24%
COc1ccc(CNc2ncc3c(n2)CC(C)(C)CC3=O)cc1	0.0539%
O=c1oc2c(ccc3ccccc32)c2c1SC(C(F)(F)F)C2 (stereo not shown)	-3.06%
CCc1ccc(CN(Cc2ccco2)C(=O)c2cccc(OC)c2)cc1	-4.67%
CCCCN(C)Cc1cccc(O)c1	-1.78%
O=C(O)C1C2CCC(C2)C1C(=O)Nc1nc2ccc(Cl)cc2s1 (stereo not shown)	-0.992%
Cc1cc(C)cc(C(=O)Nc2ccncc2)c1	1.27%
CCc1ccc(CN2CCN(c3ccc(F)cc3)CC2)cc1	-0.197%
Cc1cc(-n2nc3ccccc3n2)c2oc(SCC(=O)N3CCCCC3)nc2c1	-4.73%
C/C(=C\c1ccccc1)CN1CCc2c([nH]c3ccccc23)C1	1.88%
COc1cc(C(=O)N2CCN(Cc3cccc(F)c3)CC2)cc(OC)c1OC	-0.69%
CCC(C)c1ccc(NC(=O)CSc2nc3cccnc3[nH]2)cc1 (stereo not shown)	1.52%
CC(=O)c1ccc(N2CCN(C(C)Cc3cccc(C(F)(F)F)c3)CC2)cc1 (stereo not shown)	-0.274%
Cc1nc(N)sc1-c1csc(Nc2ccccc2)n1	10.1%

— publication PMC6919601, “Identification of Plasmodium dipeptidyl aminopeptidase allosteric inhibitors by high throughput screening” (PLoS ONE, 2019)
